# Reference: PubChem BioAssay (Tox21)
# The inconclusive results got no clear call from the source; some entries with a clear call stand among them for comparison. For some assays here: No potency is given beside an inconclusive call; the fits are too rough. Active and inactive are the calls of the source. Unless noted, calls follow the shape of the full dose curve.
# Columns and labels:
# [1] = qHTS assay to identify small molecule antagonists of the vitamin D receptor (VDR) signaling pathway - cell viability counter screen (AID 743225; active = well fitted curve in the direction sought with a large enough effect in the repeat runs; inconclusive = weak or mixed curves; inactive = no such curve, though single readings can be large; an effect the other way counts as inactive or inconclusive; also: nearly all actives have a fitted effect of over 50% in size; as to viability change, negative = cytotoxic: % is scaled to controls: 0 for no effect and ±100 for the full control effect); conditions: VDR-bla HEK293T viability, CellTiter-Glo luminescence, 16 h; viability change, negative = cytotoxic: at 61 µM (top of the series) unless noted
# Summary of the method: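 Viability counter screen run in the same wells as the beta-lactamase reporter assay: HEK 293T VDR-UAS-bla cells, 16 h compound exposure at 37C with 3 nM (final) 1-alpha,25-dihydroxyvitamin D3. CellTiter-Glo luminescence, 30 min, room temperature.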
# [2] = qHTS assay to identify small molecule agonists of the endoplasmic reticulum stress response signaling pathway (AID 1159516; active = well fitted activation curve with a large enough effect in the signal ratio in the repeat runs, not every such curve was filed as active; inconclusive = weak or mixed curves, or effect the other way; the % refers to the signal ratio; as to activation: % is scaled to controls: 0 for no effect and ±100 for the full control effect); conditions: ESRE-bla HeLa, ER stress beta-lactamase reporter, 5 h; activation: at 61 µM (top of the series) unless noted
# Summary of the method: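 Ratiometric FRET readout (405 nm excitation; 460 and 530 nm emission) of a beta-lactamase gene driven by the ER stress response element, after 2 hr substrate loading. HeLa ESRE-bla cells were seeded overnight and treated with compounds for only 5 hr at 37 C.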
# [3] = qHTS assay to identify small molecule agonists of the endoplasmic reticulum stress response signaling pathway - cell viability counter screen (AID 1159517); also: nearly all actives have a fitted effect of over 50% in size
# Summary of the method: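 After overnight attachment, ESRE-bla HeLa cells were treated with Tox21 library compounds for 5 hr. CellTiter-Glo luminescence, read 30 min post-addition at room temperature, reported viability.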
# [4] = target: Nuclear receptor ROR-gamma (Homo sapiens) (UniProt P51449); assay: qHTS assay to identify small molecule antagonists of the retinoid-related orphan receptor gamma (ROR-gamma) signaling pathway (AID 1159521; active = well fitted curve in the direction sought with a large enough effect in the repeat runs; inconclusive = weak or mixed curves; inactive = no such curve, though single readings can be large; an effect the other way counts as inactive or inconclusive; also: nearly all actives have a fitted effect of over 50% in size)
# Summary of the method: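 Luminescence readout (ONE-Glo, 30 min RT) after 16 h doxycycline induction; loss of signal scored as antagonism. CHO cells with TET-inducible RORγ and RORE-LUC reporter; compounds added 2 h before 1 uM final doxycycline.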
# [5] = target: Retinoic acid receptor RXR-alpha (Homo sapiens) (UniProt P19793); assay: qHTS assay to identify small molecule agonists of the RXR signaling pathway (AID 1159527); conditions: HEK293T RXRa-UAS-bla, beta-lactamase ratio, 16 h; activation: at 76.8 µM (top of the series) unless noted; also: nearly all actives have a fitted effect of over 35% in size; as to activation: % is scaled to controls: 0 for no effect and ±100 for the full control effect
# Summary of the method: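 Agonist mode; 9-cis retinoic acid positive control. HEK 293T UAS-bla reporter cells, 2% charcoal-stripped FBS, 16 hr compound exposure at 37 C/5% CO2. LiveBLAzer B/G FRET substrate 2 hr RT; ex 405, em 460/530 nm.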
# [6] = qHTS assay to identify small molecule agonists of the RXR signaling pathway - cell viability counter screen (AID 1159529; active = well fitted curve in the direction sought with a large enough effect in the repeat runs; inconclusive = weak or mixed curves; inactive = no such curve, though single readings can be large; an effect the other way counts as inactive or inconclusive; also: nearly all actives have a fitted effect of over 50% in size)
# Summary of the method: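 Luminescence from CellTiter-Glo (30 min, RT) measured viability in the same wells as the beta-lactamase reporter readout. Cells: GeneBLAzer RXR-alpha HEK 293T, 2% charcoal-stripped FBS. Compound exposure 16 hr, 37 C.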
# [7] = qHTS assay to identify small molecule agonists of the AP-1 signaling pathway (AID 1159526); conditions: ME-180 (cervical carcinoma) AP-1-bla reporter, beta-lactamase FRET ratio, 5 h; activation: at 76.8 µM (top of the series) unless noted
# [8] = qHTS assay to identify small molecule agonists of the AP-1 signaling pathway - cell viability counter screen (AID 1159525); also: nearly all actives have a fitted effect of over 55% in size
# Summary of the method: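 Intracellular ATP by Cell Titer Glo luminescence (30 min, RT) in the same ME-180 AP-1-bla wells after the 5 h compound exposure at 37 °C. Normalised to tetra n-octyl ammonium bromide and DMSO controls.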
# Potency is read from the fitted curve at half-maximal effect; tags tell the direction and shape of the fitted curve or compound fluorescence and quenching.
# Sequence of UniProt P19793 (P19793 whole entry, looked up): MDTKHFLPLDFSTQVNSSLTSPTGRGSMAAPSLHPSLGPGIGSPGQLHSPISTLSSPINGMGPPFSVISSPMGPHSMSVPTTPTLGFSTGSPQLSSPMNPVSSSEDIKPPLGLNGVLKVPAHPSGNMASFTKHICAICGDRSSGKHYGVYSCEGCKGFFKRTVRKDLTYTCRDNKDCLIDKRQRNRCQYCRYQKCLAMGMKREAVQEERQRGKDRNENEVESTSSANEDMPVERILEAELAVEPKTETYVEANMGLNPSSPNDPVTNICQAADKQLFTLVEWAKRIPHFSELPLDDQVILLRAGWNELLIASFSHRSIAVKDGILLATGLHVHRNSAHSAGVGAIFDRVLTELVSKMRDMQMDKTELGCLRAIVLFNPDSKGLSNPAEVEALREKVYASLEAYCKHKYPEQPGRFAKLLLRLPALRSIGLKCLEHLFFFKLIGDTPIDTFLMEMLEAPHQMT
structure (smiles),measurement,setting,value
C=C(C)[C@@H]1CCC2=CCC[C@@H](C)[C@]2(C)C1,Potency,[1],"inconclusive [cytotoxic, partial curve, poor fit]"
same,activation,[2],inconclusive: -10.5%
same,Potency,[3],"inconclusive [cytotoxic, single point]"
same,Potency,[4],"inconclusive [inhibitor, single point]"
same,activation,[5],inconclusive: -24%
same,Potency,[6],"inconclusive [cytotoxic, partial curve, poor fit]"
Nc1nc(-c2ccccc2)cs1,Potency,[1],inactive
same,Potency,[2],inactive
same,Potency,[3],"inconclusive [rising, single point]"
same,Potency,[7],"inconclusive [activator, partial curve, poor fit]"
CCCOc1ccc2nc(NC(=O)OC)[nH]c2c1,Potency,[2],inactive
same,Potency,[3],inactive
same,Potency,[7],"inconclusive [activator, partial curve, poor fit]"
same,Potency,[5],"inconclusive [rising, partial curve, poor fit]"
Nc1ccccc1O,Potency,[2],"inconclusive [rising, single point]"
same,Potency,[3],inconclusive [cytotoxic]
same,Potency,[8],active: 15.3 µM
same,Potency,[7],"inconclusive [falling, partial curve]"
CCN(CC)c1ccc(C(=C2C=CC(=[N+](CC)CC)C=C2)c2cc(S(=O)(=O)O)ccc2S(=O)(=O)[O-])cc1,Potency,[1],inactive
same,Potency,[2],inactive
same,Potency,[3],inactive
same,Potency,[4],"inconclusive [inhibitor, partial curve]"
same,Potency,[6],"inconclusive [cytotoxic, partial curve, poor fit]"
